Reference: article PMC4336329 (PLoS ONE, 2015)
Out of some 310,000 compounds screened, about 14,000 (4.5%) showed an effect of 50% or more. Effects have a minus sign here. This is one part of the list.
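Also: peak tail current of the secondary pulse compared with the same well before compound.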

The molecules below were run against human ether-à-go-go-related gene (hERG) potassium channel (human, UniProt Q12809) (assay: primary screen, population patch clamp on CHO cells stably expressing hERG).
Sequence of human ether-à-go-go-related gene (hERG) potassium channel (Q12809 whole entry, looked up): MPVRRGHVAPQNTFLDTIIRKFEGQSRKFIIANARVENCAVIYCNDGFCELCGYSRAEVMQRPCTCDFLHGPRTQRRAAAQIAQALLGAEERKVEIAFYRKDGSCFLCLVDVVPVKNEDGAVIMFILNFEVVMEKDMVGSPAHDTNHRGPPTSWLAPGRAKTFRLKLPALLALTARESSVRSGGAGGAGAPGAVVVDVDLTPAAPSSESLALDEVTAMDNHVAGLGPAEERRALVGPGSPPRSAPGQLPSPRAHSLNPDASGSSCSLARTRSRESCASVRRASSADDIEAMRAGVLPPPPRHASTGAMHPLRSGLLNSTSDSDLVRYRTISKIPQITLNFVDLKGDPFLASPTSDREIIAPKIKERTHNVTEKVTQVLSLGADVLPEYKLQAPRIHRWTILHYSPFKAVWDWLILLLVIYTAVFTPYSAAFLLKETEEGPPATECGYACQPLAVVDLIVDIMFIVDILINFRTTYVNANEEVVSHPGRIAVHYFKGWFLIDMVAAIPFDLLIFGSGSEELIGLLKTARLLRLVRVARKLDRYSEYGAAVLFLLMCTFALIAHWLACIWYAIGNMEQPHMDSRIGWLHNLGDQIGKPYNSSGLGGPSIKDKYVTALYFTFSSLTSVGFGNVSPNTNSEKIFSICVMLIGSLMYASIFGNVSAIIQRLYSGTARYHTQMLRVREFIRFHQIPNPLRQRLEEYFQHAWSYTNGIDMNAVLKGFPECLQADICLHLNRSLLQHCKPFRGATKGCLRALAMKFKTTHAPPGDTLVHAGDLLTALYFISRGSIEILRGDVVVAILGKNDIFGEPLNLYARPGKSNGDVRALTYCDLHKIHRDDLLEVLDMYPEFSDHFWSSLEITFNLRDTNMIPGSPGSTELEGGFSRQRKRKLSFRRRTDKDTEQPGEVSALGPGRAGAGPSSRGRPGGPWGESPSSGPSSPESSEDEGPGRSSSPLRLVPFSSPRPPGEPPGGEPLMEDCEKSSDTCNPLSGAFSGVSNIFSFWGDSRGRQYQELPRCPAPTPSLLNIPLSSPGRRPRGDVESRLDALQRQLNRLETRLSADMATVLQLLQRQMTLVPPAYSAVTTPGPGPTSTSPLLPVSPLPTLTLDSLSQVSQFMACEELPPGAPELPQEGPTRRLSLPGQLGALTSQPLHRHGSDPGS
In the case of `Cc1nccn1CCC1CCCCN1C(=O)CCc1nnc(-c2ccsc2)o1` (centres unmarked), the “hERG current change (%, negative = inhibition) at 10uM” value was 0.295%.
With `O=C(NC1CCCCC1)C(c1cccs1)N(C(=O)Cc1c[nH]c2ccccc12)c1ccc(F)cc1` (centres unmarked) the “hERG current change (%, negative = inhibition) at 10uM” value was 14.7%.
With `NC(=O)c1nsc(C(=O)N(CC(=O)NC2CCCC2)Cc2ccc3c(c2)OCO3)c1N` the “hERG current change (%, negative = inhibition) at 10uM” value was -11.9%.
In the case of `O=S(=O)(c1ccc(=S)[nH]c1)N1CCCCC1`, the “hERG current change (%, negative = inhibition) at 10uM” value was 32.3%.
`COc1ccccc1CN1CC(C(=O)NCCn2ccc(C)n2)CCC1=O` (centres unmarked) was tested, and the “hERG current change (%, negative = inhibition) at 10uM” value was 15.7%.
With `O=C(O)CC1SC(=Nc2ccccc2)N(c2ccccc2)C1=O` (centres unmarked) the “hERG current change (%, negative = inhibition) at 10uM” value was 16.8%.
For `COc1ccc(CN2CCNC(=O)C2CC(=O)O)c(OC)c1` (centres unmarked), the “hERG current change (%, negative = inhibition) at 10uM” value was 13.7%.
For `N/C(Cc1ccc(Cl)cc1)=N\OC(=O)c1ccccc1`, the “hERG current change (%, negative = inhibition) at 10uM” value was 2.52%.
`CC1CCCC(C)N1CCCNC(=O)CN1C(=O)c2cccnc2Oc2ccc(Cl)cc21` (centres unmarked) was tested, and the “hERG current change (%, negative = inhibition) at 10uM” value was 0.579%.
`CCN(CC)C(=O)c1sc(NC(=O)Cc2cccs2)c(C#N)c1C` was tested, and the “hERG current change (%, negative = inhibition) at 10uM” value was -6.24%.
In the case of `COCCCNC(=O)C1CC(=O)N(c2ccc(C)cc2)C1` (centres unmarked), the “hERG current change (%, negative = inhibition) at 10uM” value was 27.1%.
In the case of `COc1ccc(/C=C(/NC(=O)c2cccs2)C(=O)NC(C)(C)C)cc1OC`, the “hERG current change (%, negative = inhibition) at 10uM” value was 14.9%.
`Cc1ccccc1C(=O)NNC(=O)c1cc(N)cc([N+](=O)[O-])c1` was tested, and the “hERG current change (%, negative = inhibition) at 10uM” value was 24.4%.
In the case of `CCc1nnc(NC(=O)c2cccnc2SC)s1`, the “hERG current change (%, negative = inhibition) at 10uM” value was 4.74%.
`COC(=O)C1C(=O)NC(SC)=C(C#N)C1c1ccccc1F` (centres unmarked) was tested, and the “hERG current change (%, negative = inhibition) at 10uM” value was 0.0833%.
With `O=[N+]([O-])c1ccc(N(CC2CO2)S(=O)(=O)c2ccccc2)cc1` (centres unmarked) the “hERG current change (%, negative = inhibition) at 10uM” value was -43.9%.
`COc1cccc(-n2cnc3sc(C)c(C)c3c2=O)c1` was tested, and the “hERG current change (%, negative = inhibition) at 10uM” value was -12%.
In the case of `COc1ccc(CC2c3cc(OC)c(OC)cc3CC[N+]2(C)CCC(=O)OCCCCCOC(=O)CC[N+]2(C)CCc3cc(OC)c(OC)cc3C2Cc2ccc(OC)c(OC)c2)cc1OC.O=S(=O)([O-])c1ccccc1` (centres unmarked), the “hERG current change (%, negative = inhibition) at 10uM” value was 3.55%.
For `CC(NC(=S)Nc1c(Br)cccc1OC(F)F)C(C)(C)C` (centres unmarked), the “hERG current change (%, negative = inhibition) at 10uM” value was -2.39%.
For `COC(=O)c1c(N)nc(C)n1-c1ccc(OC)cc1`, the “hERG current change (%, negative = inhibition) at 10uM” value was 18.2%.
`COc1ccccc1N1CCN(C(=O)CCn2c(=O)[nH]c3ccsc3c2=O)CC1` was tested, and the “hERG current change (%, negative = inhibition) at 10uM” value was 8.71%.
In the case of `O=C1c2ccccc2NC(c2ccccc2O)N1O` (centres unmarked), the “hERG current change (%, negative = inhibition) at 10uM” value was 22.1%.
`COc1cccc(CNS(=O)(=O)c2ccc3c(c2)N(C(C)=O)CCO3)c1` was tested, and the “hERG current change (%, negative = inhibition) at 10uM” value was 3.92%.
For `O=C(NCc1ccccc1)C1=C[C@H](c2ccc(C(F)(F)F)cc2)C[C@H](OCCCCO)O1`, the “hERG current change (%, negative = inhibition) at 10uM” value was -30.3%.
`CC(SCc1ccccc1)C(=O)N/N=C/c1ccc(OCC(=O)NCc2ccco2)cc1` (centres unmarked) was tested, and the “hERG current change (%, negative = inhibition) at 10uM” value was -13%.
In the case of `CC1CC(C)CN(CCCNC(=O)c2ccc3nc(N4CCCCC4)sc3c2)C1` (centres unmarked), the “hERG current change (%, negative = inhibition) at 10uM” value was -47.5%.
`CC(CNC(=O)C1CCCCC1)NC(=O)C1CCCCC1` (centres unmarked) was tested, and the “hERG current change (%, negative = inhibition) at 10uM” value was -3.66%.
For `O=C(Cn1cc2c(n1)CCCC2)NCCCN1CCN(Cc2ccccc2)CC1`, the “hERG current change (%, negative = inhibition) at 10uM” value was -21.4%.
With `Cc1cc(NC(=O)c2cc(-c3ccc4c(c3)OCO4)on2)n(-c2ccccc2)n1` the “hERG current change (%, negative = inhibition) at 10uM” value was 13.5%.
For `Cc1cccc(NC(=O)CSc2ncnc3sc(C)cc23)c1`, the “hERG current change (%, negative = inhibition) at 10uM” value was 1.82%.
In the case of `CC(C)(C)c1ccc(C(=O)N/C(=C/c2cccs2)C(=O)NCc2ccco2)cc1`, the “hERG current change (%, negative = inhibition) at 10uM” value was -6.48%.
For `CC1CCN(c2c(NCC3CCC(C(=O)NCc4ccccc4)CC3)c(=O)c2=O)CC1` (centres unmarked), the “hERG current change (%, negative = inhibition) at 10uM” value was 10.5%.
For `CN(C)CCOC(=O)CCCCCCCCC(=O)OCCN(C)C.Cl`, the “hERG current change (%, negative = inhibition) at 10uM” value was 6.69%.
With `COc1ccc(C(=O)O)cc1S(=O)(=O)NC(C)(C)C` the “hERG current change (%, negative = inhibition) at 10uM” value was 6%.
`CCOC(=O)C1CCCN(C(=O)CSc2ccc(Br)cc2)C1` (centres unmarked) was tested, and the “hERG current change (%, negative = inhibition) at 10uM” value was -33.6%.
`O=C(O)CCc1ccc(-c2ccc(F)cc2)n1CC1CCCO1` (centres unmarked) was tested, and the “hERG current change (%, negative = inhibition) at 10uM” value was -22.5%.
In the case of `CCCCCCn1c(O)c(/C=N/N2CCCCCC2)c(=O)[nH]c1=O`, the “hERG current change (%, negative = inhibition) at 10uM” value was 5.19%.
In the case of `CNC(=O)c1sc(-c2cccs2)nc1C`, the “hERG current change (%, negative = inhibition) at 10uM” value was 16.1%.
In the case of `O=C(CC(=O)N/N=C/c1ccc(F)cc1)N/N=C/c1ccc(F)cc1`, the “hERG current change (%, negative = inhibition) at 10uM” value was 20.8%.
In the case of `C=CCNC(=O)NC(=O)CN1C(=O)NC(c2ccccc2)(c2ccccc2)C1=O`, the “hERG current change (%, negative = inhibition) at 10uM” value was -69.5%.
For `COC(=O)c1c(NC(=O)C(C)C)sc2c1C(C(=O)OC)CC2` (centres unmarked), the “hERG current change (%, negative = inhibition) at 10uM” value was 11.8%.
With `COc1ccc(N2CC(C(=O)N[C@H](C(=O)NC3CCCC3)C(C)C)CC2=O)cc1` (some centres unmarked) the “hERG current change (%, negative = inhibition) at 10uM” value was 25.1%.
In the case of `COc1ccc(/C=C/CN2CCC(n3nccc3NC(=O)C3CCCC3)CC2)cc1`, the “hERG current change (%, negative = inhibition) at 10uM” value was -88.6%.
For `O=c1[nH]cc(C(F)(F)F)cc1NS(=O)(=O)c1ccc([N+](=O)[O-])cc1`, the “hERG current change (%, negative = inhibition) at 10uM” value was -7.67%.
